Some of the results follow. At the low end of the ranking the order means little.
The sequences below were run against T1, GST-Rok (full length) (UniProt O34857) (assay: protein binding microarray). Details: Rok is a gene silencer of Bacillus subtilis; high values mean tight binding; most listed sequences are background and not binding sites; double strand, one strand shown.
T1 sequence: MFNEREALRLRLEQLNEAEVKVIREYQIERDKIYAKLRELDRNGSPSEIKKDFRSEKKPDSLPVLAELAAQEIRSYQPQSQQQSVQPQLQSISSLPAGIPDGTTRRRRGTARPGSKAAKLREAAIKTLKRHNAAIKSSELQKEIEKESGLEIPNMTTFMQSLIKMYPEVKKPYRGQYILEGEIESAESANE
Sequence CGCACGCA has a binding signal of -0.227 E-score. GTCGCGAC was tested, and the binding signal was -0.0623 E-score. For CGCTGTAA, the binding signal was 0.112 E-score. In the case of AACGCCCG, the binding signal is reported as -0.18 E-score. AAATTCGG gave a binding signal of 0.0315 E-score. ATCTATAA showed a binding signal of 0.307 E-score. With GTCCAGTA the binding signal was 0.115 E-score. ATAGATCG showed a binding signal of 0.138 E-score. Work on ACGTGTAC yielded a binding signal of -0.0515 E-score. Work on GGCGATTA yielded a binding signal of 0.00681 E-score. In the case of ACGGAACA, the binding signal is reported as -0.0853 E-score. With GGAGGTAC the binding signal was 0.04 E-score. For AACGGATA, the binding signal was 0.0821 E-score. CAAATAAG showed a binding signal of -0.0595 E-score. CGCCGTTA showed a binding signal of -0.0867 E-score. For ACACATAC, the binding signal was 0.248 E-score. CTTCATGA gave a binding signal of -0.197 E-score. CACTCCTA was tested, and the binding signal was 0.0224 E-score. With ATCAGTTG the binding signal was 0.124 E-score. Sequence GATTAGAA has a binding signal of -0.0372 E-score. CACGCAAG was tested, and the binding signal was -0.208 E-score. With ACCGAGGA the binding signal was -0.292 E-score. With GCCGGTTA the binding signal was -0.184 E-score. Work on ACCATCAT yielded a binding signal of -0.0574 E-score. In the case of AACCGCTG, the binding signal is reported as -0.326 E-score. Work on ACACAGTG yielded a binding signal of 0.151 E-score. CTCTTGAA gave a binding signal of -0.306 E-score. In the case of ACGCGAGG, the binding signal is reported as -0.139 E-score. In the case of CGCACGAA, the binding signal is reported as -0.00623 E-score. ACATTGTC showed a binding signal of -0.0121 E-score. AGGTGAAG showed a binding signal of -0.0865 E-score. Sequence TCAATTCA has a binding signal of 0.0998 E-score. AACGATAG was tested, and the binding signal was 0.224 E-score. In the case of AGAGATAG, the binding signal is reported as 0.112 E-score. Work on CATACCGG yielded a binding signal of 0.00723 E-score. In the case of CAGGAAAA, the binding signal is reported as -0.0418 E-score. In the case of GCCTTAAA, the binding signal is reported as -0.232 E-score. CAATGCAC gave a binding signal of 0.0285 E-score. AAGTCTGT was tested, and the binding signal was -0.0469 E-score. AAAAAGGC was tested, and the binding signal was -0.0191 E-score. AGATTGAA showed a binding signal of 0.0809 E-score. Sequence ACCTATAC has a binding signal of 0.266 E-score. TCTTTCAA was tested, and the binding signal was -0.0586 E-score. CCGGCCAG was tested, and the binding signal was -0.278 E-score. GAGCGATA showed a binding signal of 0.0162 E-score. Work on TGTGATAA yielded a binding signal of 0.153 E-score. In the case of AGGAGAGG, the binding signal is reported as -0.177 E-score. For GCCCTCCC, the binding signal was -0.391 E-score. AAGATTAA gave a binding signal of 0.221 E-score. Sequence CGCGCACC has a binding signal of -0.235 E-score. CAAGCAAC gave a binding signal of -0.165 E-score. CCATCGGC gave a binding signal of -0.173 E-score. For AACGGGCG, the binding signal was -0.0452 E-score. CGCCGGTC was tested, and the binding signal was -0.208 E-score. For CACGCTTA, the binding signal was -0.0251 E-score. Work on AGGGGTAT yielded a binding signal of -0.14 E-score. ACACATCG was tested, and the binding signal was -0.0192 E-score. For CTTCCTCA, the binding signal was -0.215 E-score. CAGATTCG showed a binding signal of 0.0798 E-score. Sequence CCGACCCC has a binding signal of -0.485 E-score. For CGGCAGTC, the binding signal was -0.237 E-score. In the case of TCGCGACA, the binding signal is reported as -0.172 E-score. Sequence TAGCTATA has a binding signal of 0.346 E-score. With AAGATATA the binding signal was 0.313 E-score. Sequence CGTGCCCC has a binding signal of -0.303 E-score. Work on GAGATAAC yielded a binding signal of 0.228 E-score. For GTGTACGA, the binding signal was 0.0388 E-score. Work on TCTTGTAA yielded a binding signal of 0.0517 E-score. AGCCATCG gave a binding signal of -0.115 E-score. With AGGCCCTC the binding signal was -0.392 E-score. TATATGAA showed a binding signal of 0.262 E-score. GCCTGGAA was tested, and the binding signal was -0.142 E-score. Sequence AGAAGACC has a binding signal of -0.3 E-score. Sequence CTATTTGC has a binding signal of 0.129 E-score. For AACGCACA, the binding signal was -0.0514 E-score. AAGCCCTA showed a binding signal of -0.226 E-score. With AACCTGTA the binding signal was 0.128 E-score. AGTGCGGG was tested, and the binding signal was -0.138 E-score. CGCGGGAC gave a binding signal of -0.416 E-score. Work on ATCGTCTA yielded a binding signal of 0.134 E-score. In the case of CCGTCACG, the binding signal is reported as -0.0865 E-score. With CTGCTTGC the binding signal was -0.129 E-score. With AATTACTC the binding signal was 0.26 E-score. Sequence AAGCCTGC has a binding signal of -0.315 E-score. AGTATAAG gave a binding signal of 0.239 E-score. ACTTGAGG showed a binding signal of -0.00692 E-score. Work on TGTCTTAA yielded a binding signal of 0.00769 E-score. With CCGAGCCA the binding signal was -0.164 E-score. Work on ACCTTCGG yielded a binding signal of -0.234 E-score. Work on GCCCACGC yielded a binding signal of -0.27 E-score. With GTTCGTAA the binding signal was 0.034 E-score. For AGTTAACG, the binding signal was 0.254 E-score. CATAATCA gave a binding signal of 0.164 E-score. With CCAGGCGA the binding signal was -0.177 E-score. In the case of TCATACCA, the binding signal is reported as 0.0971 E-score. ACGACCCT gave a binding signal of -0.215 E-score. In the case of ATTTCGCG, the binding signal is reported as 0.118 E-score. Sequence GCATGTAC has a binding signal of 0.0911 E-score. AGCCGGTA gave a binding signal of -0.082 E-score. AACCGTGC showed a binding signal of -0.179 E-score. AGGTTTTA gave a binding signal of 0.0648 E-score. For GACTGGAC, the binding signal was -0.134 E-score. TGTAGCAA gave a binding signal of 0.217 E-score. AGGGTGTA showed a binding signal of -0.0212 E-score. TAGATGCA was tested, and the binding signal was 0.191 E-score. ACGGACCC gave a binding signal of -0.272 E-score. AGCTCGGA was tested, and the binding signal was -0.0137 E-score. AAGAATGG gave a binding signal of -0.00549 E-score. TAATGAAA was tested, and the binding signal was 0.0595 E-score. For CTCATCGA, the binding signal was -0.105 E-score.
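Further: rank score from −0.5 (least bound) to 0.5 (best bound).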
